Measured values as given in PubChem BioAssay AID445 (National Center for Advancing Translational Sciences (NCATS), 2006).
The campaign covered roughly 110,000 compounds. About 40 (0.04%) were called active. This list was built around the results that the source calls inconclusive (neither active nor inactive); the mix of calls is not that of the screen. Calls follow the shape of the dose curve; as a rule, active = well fitted curve in the direction sought with a large enough effect in the signal ratio (not every such curve was filed as active); inconclusive = small, poorly fitted or top-dose-only effect, or a change in a side signal; inactive = flat fitted curve, though single readings scatter; the % refers to the signal ratio. A potency beside an inconclusive call is a rough fit, not a confirmed value.

Assay: IkB Signaling;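 as to IkBa stabilization activation: 0% = basal untreated cells and 100% = reference inhibitor full response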
Conditions: ABC-DLBCL IkBa-CBG/CBR dual luciferase ratio (green luciferase fused to IkBa over red control in OCI-Ly3 lymphoma cells), 4 h; IkBa stabilization activation: at 57.1 µM (top of the series), scaled: untreated 0%, proteasome inhibitor 100% unless noted
Procedure, shortened: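 Curves were fitted separately to fusion (green), unfused (red) and ratio luminescence, then classed by r2, magnitude and activity. Cells: OCI-Ly3, 4 h compound plus doxycycline at 37C; 10 uM MG-132 defined full response.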
Potency is read from the fitted curve at half-maximal effect.

| SMILES | IkBa stabilization activation | Potency |
| --- | --- | --- |
| CCC(C)NC(=O)Cn1ncc2c(C)n(Cc3ccc(F)cc3)c(C)c2c1=O (stereo not drawn) | inconclusive: 0.771% [signal inhibitor] | – |
| COC(=O)c1ccc(Cn2c(=O)cc(C)c3c(C)nn(C)c32)cc1 | inconclusive: 2.15% [signal inhibitor] | – |
| Cc1cc(=O)[nH]c2nnc(SCC(=O)Nc3cc(C(F)(F)F)ccc3Cl)n12 | inactive: -3.73% | – |
| Cc1oc(C)c2c(=O)ccc3c(c12)OC(N)=C(C#N)C3c1ccccc1 (stereo not drawn) | inconclusive: 14.2% [signal inhibitor] | – |
| CCn1cc(C(=O)N2CCN(c3ccccc3)CC2)c(=O)c2cc(S(=O)(=O)N(C)C3CCCCC3)ccc21 | inconclusive: 0.753% [signal inhibitor] | – |
| CC(=O)CSc1nc(-c2ccccc2)[nH]c1S(=O)(=O)c1ccc(C)cc1 | inconclusive: -0.135% [signal inhibitor] | – |
| CCOc1ccc(Sc2cc(C(=O)NCc3ccc(F)cc3)c3ccccc3n2)cc1 | inconclusive: -0.487% [signal inhibitor] | – |
| O=C(Nc1ccc2c(c1)OCO2)N1CCOCC1 | inactive: -1.19% | – |
| COCCn1c(=O)c(-c2cccs2)nc2cnc(Oc3cccc(Cl)c3)nc21 | inactive: 2.27% [at 11.4 µM, scaled: untreated 0%, proteasome inhibitor 100%] | – |
| O=C(CN1C(=O)CCSc2ccc(S(=O)(=O)N3CCCC3)cc21)Nc1cccc(Cl)c1 | inconclusive: 2.22% [signal inhibitor] | – |
| O=C(Nc1ccc2c(c1)OCO2)c1cccc(S(=O)(=O)N2CCCC2)c1 | inactive: 2.84% | – |
| CSc1ccc(CCNC(=O)C(C)n2nc(C)c3c(C)n(-c4ccccc4)nc3c2=O)cc1 (stereo not drawn) | inconclusive: -0.891% [signal inhibitor] | – |
| CCCc1ccc(Oc2c(-c3ccc(O)c(C)c3O)n[nH]c2C)cc1 | inconclusive: -4.23% [signal inhibitor] | – |
| OCc1ccnc2c(O)cccc12 | inactive: -0.578% | – |
| Cc1ccc(CCNC(=O)Cn2nc(C)c3c(C)n(-c4ccc(C)cc4)nc3c2=O)cc1 | inconclusive: 6.19% [signal inhibitor] | – |
| Cc1cccc(CNC(=O)c2ccc(-c3nc(CS(=O)(=O)c4ccccc4)c(C)o3)cc2)c1 | inconclusive: -1.67% [signal inhibitor] | – |
| Cc1ccc(NC(=O)COc2ccc3oc4c(c3c2)CCCC4)c(C)c1 | inconclusive: -0.12% [signal inhibitor] | – |
| CN(C)c1ccc(-c2nc(-c3ccccn3)no2)cc1[N+](=O)[O-] | inactive: -0.268% | – |
| COCCCNC(=O)c1ccc2c(=O)n(C3CCCC3)c(=S)[nH]c2c1 | inactive: -0.838% | – |
| COc1cccc2cc(-c3nnc(Nc4ccccc4C)s3)c(=O)oc12 | inconclusive: 0.376% [signal inhibitor] | – |
| COc1ccccc1N1CCN(C(=O)CCn2cnc3onc(-c4ccc(F)cc4)c3c2=O)CC1 | inconclusive: 0.0956% [signal inhibitor] | – |
| Cc1cc(C)cc(N2C(=O)CS(=O)(=O)C23C(=O)N(Cc2ccc(F)cc2)c2ccc(C)cc23)c1 (stereo not drawn) | inactive: -1.03% | – |
| Cc1ccc(CCNC(=O)NCc2noc3ccc(C)cc23)cc1 | inconclusive: 2.59% [signal inhibitor] | – |

| SMILES | IkBa stabilization activation | Potency |
| --- | --- | --- |
| CCOc1ccc(-c2cc3nc(C4CCN(C(=O)OC(C)(C)C)CC4)c(C(=O)Nc4ccc(C(=O)OC)cc4)cn3n2)cc1 | inactive: -0.305% | – |
| CCCSc1nc(=O)c2c(n1C)NC(=O)CC2c1cccc(F)c1F (stereo not drawn) | inactive: 0.845% | – |
| COC(=O)c1ccc(O)c(Sc2cc(C(=O)OC)ccc2O)c1 | inconclusive: 3.76% [signal inhibitor] | – |
| Cc1cccc(NC(=O)Cn2cc(S(=O)(=O)c3ccc(F)cc3)c(=O)c3cc4c(cc32)OCO4)c1 | inconclusive: 0.097% [signal inhibitor] | – |
| CC(=O)c1cccc(NC(=O)c2cnn(-c3cccc(C)c3)c2-n2cccc2)c1 | inconclusive: -4.2% [signal inhibitor] | – |
| CCC(=O)N1CCc2cc(Br)cc(S(=O)(=O)NCCc3ccccc3Cl)c21 | inconclusive: 3.49% [signal inhibitor] | – |
| Cc1ccc(C)c(NC(=O)N2CC=C(c3c[nH]c4ccccc34)CC2)c1 | inconclusive: 6.64% [signal inhibitor] | – |
| Cn1c(CSCc2ccc(Cl)c(Cl)c2)nnc1SCC(=O)Nc1nccs1 | inconclusive: 1.84% [signal inhibitor] | – |
| CC#C[C@@]1(O)CC[C@@H]2[C@@H]3CCC4=CC(=O)CCC4=C3[C@@H](c3ccc(N(C)C)cc3)C[C@]21C | inconclusive: 13.1% [signal activator] | – |
| Cc1cccc(N(C)C(=O)C(Cc2ccccc2)NS(=O)(=O)c2cccc3nsnc23)c1 (stereo not drawn) | inactive: -2.34% | – |
| Cc1cccc(OCc2nnc(SCC(=O)OC3CCCCC3)o2)c1 | inconclusive: 2.1% [signal inhibitor] | – |
| CCc1cc(C=NC2CCCCC2)c(O)s1 | inactive: 0.123% | – |
| Cc1cc2nn(-c3cccc4ccccc34)nc2cc1N | inactive: 4.73% | – |
| COc1ccccc1OCC(=O)N(Cc1ccc(N(C)C)cc1)CC1CCCO1 (stereo not drawn) | inconclusive: 2.03% [signal inhibitor] | – |
| CN1CCC[C@@H]1c1cccnc1.O=C(O)c1ccccc1O.O=C([OH2+])c1ccccc1O.O=C([OH2+])c1ccccc1O.[Mn] | inactive: -0.688% [at 11.4 µM, scaled: untreated 0%, proteasome inhibitor 100%] | – |
| O=C(Nc1cnccn1)c1ccncc1 | inactive: -5.49% | – |
| Fc1ccc(NCc2cn3ccccc3n2)cc1 | inactive: 5.92% | – |
| CCCCN(Cc1ccccc1)C(=O)CN(C)S(=O)(=O)c1ccc2c(c1)c(=O)n(C)c(=O)n2C | inconclusive: 0.366% [signal inhibitor] | – |
| Cc1cccc(OCc2ccc(-c3nc(C#N)c(N4CCC(C(N)=O)CC4)o3)o2)c1 | inconclusive: 4.14% [signal inhibitor] | – |
| CCc1cc2c(cc3c(=O)n(CCCC(=O)NCc4ccccc4Cl)nc(CC)n32)s1 | inconclusive: 2.7% [signal inhibitor] | – |
| COCCN(CCOC)S(=O)(=O)c1ccc(C(=O)Nc2nnc(C)o2)cc1 | inactive: 0.685% | – |
| CCOC(=O)c1cccc(NC(=O)CC2C(=O)N(c3ccc(F)cc3)C(=O)N2C(C)C)c1 (stereo not drawn) | inconclusive: 4.94% [signal inhibitor] | – |
| Cc1ccc(-c2nc3ncccc3o2)cc1NC(=O)COc1ccc(C(C)C)cc1 | – | inconclusive: 39.8 µM [signal inhibitor] |

| SMILES | IkBa stabilization activation | Potency |
| --- | --- | --- |
| Cc1ccc(-c2[nH]nc3c2C(c2cccnc2)C(C#N)=C(N)O3)cc1 (stereo not drawn) | inactive: 4.99% | – |
| COc1ccc(NC(=O)C(Cc2ccccc2)NS(=O)(=O)c2ccc(Br)s2)cc1OC (stereo not drawn) | inconclusive: 10.9% [signal inhibitor] | – |
| CS(=O)(=O)c1ccc(Cn2c3c(c4cc(F)cc(F)c42)CCC[C@H]3CC(=O)O)cc1 | inconclusive: 1.52% [signal inhibitor] | – |
| Cc1ccc(C)c(N2CCN(C(=O)CCS(=O)(=O)c3cccc4nonc34)CC2)c1 | inconclusive: 1.21% [signal inhibitor] | – |
| COc1ccc(OC)c(CCNC(=O)c2cc3c(-c4ccccc4F)nn(C)c3s2)c1 | inconclusive: 1.91% [signal inhibitor] | – |
| CN(C)c1ncnc2ccc(-c3ccccc3C#N)cc12 | inactive: -0.632% [at 11.4 µM, scaled: untreated 0%, proteasome inhibitor 100%] | – |
| COc1ccc(C)cc1NS(=O)(=O)c1ccc2c(c1)[C@H]1C=CC[C@H]1[C@@H](c1cccc(Cl)c1)N2 | inconclusive: 3.04% [signal inhibitor] | – |
| CN(C)S(=O)(=O)c1ccc2c(c1)c(=O)c(C(=O)NCCCN1CCCCCC1)cn2C | inactive: -2.43% | – |
| O=S(=O)(Nc1cccc2ncccc12)c1cccs1 | – | inconclusive: 1 µM [signal activator, full curve] |
| COc1ccccc1CCNC(=O)CCn1c(=O)c2cccn2c2ccc(F)cc21 | inconclusive: -0.0922% [signal inhibitor] | – |
| CCNc1ccc(S(=O)(=O)C(F)(F)F)cc1NC(=O)C12CCC(CC1)C2 | inactive: 0.795% | – |
| CCOc1cc(C(=O)Nc2ccc3oc(-c4ccc(CC)cc4)nc3c2)cc(OCC)c1OCC | inconclusive: 11.1% [signal inhibitor] | – |
| CCOCCCNC(=O)c1cnc2sc(N3CCCCCC3)nn2c1=O | inactive: -2.2% | – |
| O=C(CCc1nc(-c2ccccc2F)no1)Nc1cccc(C(F)(F)F)c1 | – | inconclusive: 39.8 µM [signal inhibitor, single point] |
| Cc1ccc(C)c(N2CCN(C(=O)c3cccc(-n4c(C)nc5cccnc54)c3)CC2)c1 | inconclusive: -1.72% [signal inhibitor] | – |
| Cc1ccc(CC(=O)N(Cc2nc(-c3ccc(C)cc3)no2)C(C)C)cc1 | inconclusive: 2.96% [signal inhibitor] | – |
| O=C(CN1C(=O)c2cccc3cccc1c23)N1CCN(Cc2ccc3c(c2)OCO3)CC1 | inconclusive: 6.15% [signal inhibitor] | – |
| O=C(Nc1ccn(-c2ccccc2)n1)c1ccc(S(=O)(=O)N2CCCCCC2)cc1 | inconclusive: 1.31% [signal inhibitor] | – |
| CCOc1ccc(OCC)c(NC(=O)c2cc(C)nc3c2c(C)nn3-c2cccc(Cl)c2C)c1 | inconclusive: -1.39% [signal inhibitor] | – |
| CC1CCc2nc(NC(=O)CSc3nc4ccccc4o3)sc2C1 (stereo not drawn) | inconclusive: 5.39% [signal inhibitor] | – |
| COCCCNc1ncnc2c1c(-c1ccccc1)cn2-c1ccc(C)c(Cl)c1 | inconclusive: 5.94% [signal inhibitor] | – |
| CCn1c(CN2CCN(c3cccc(Cl)c3)CC2)nc2c1c(=O)[nH]c(=O)n2C | inconclusive: 3.11% [signal inhibitor] | – |
